Data reported in PMC4336329 (PLoS ONE, 2015).
In all, about 310,000 compounds went through this assay and about 14,000 (4.5%) showed an effect of 50% or more. The effect is printed as a negative number. The list shows a part of the results.

Molecular target: human ether-à-go-go-related gene (hERG) potassium channel (human, UniProt Q12809)
Test: primary screen, population patch clamp on CHO cells stably expressing hERG
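Further: peak tail current of the secondary pulse compared with the same well before compound.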

Sequence of human ether-à-go-go-related gene (hERG) potassium channel (Q12809 whole entry, looked up): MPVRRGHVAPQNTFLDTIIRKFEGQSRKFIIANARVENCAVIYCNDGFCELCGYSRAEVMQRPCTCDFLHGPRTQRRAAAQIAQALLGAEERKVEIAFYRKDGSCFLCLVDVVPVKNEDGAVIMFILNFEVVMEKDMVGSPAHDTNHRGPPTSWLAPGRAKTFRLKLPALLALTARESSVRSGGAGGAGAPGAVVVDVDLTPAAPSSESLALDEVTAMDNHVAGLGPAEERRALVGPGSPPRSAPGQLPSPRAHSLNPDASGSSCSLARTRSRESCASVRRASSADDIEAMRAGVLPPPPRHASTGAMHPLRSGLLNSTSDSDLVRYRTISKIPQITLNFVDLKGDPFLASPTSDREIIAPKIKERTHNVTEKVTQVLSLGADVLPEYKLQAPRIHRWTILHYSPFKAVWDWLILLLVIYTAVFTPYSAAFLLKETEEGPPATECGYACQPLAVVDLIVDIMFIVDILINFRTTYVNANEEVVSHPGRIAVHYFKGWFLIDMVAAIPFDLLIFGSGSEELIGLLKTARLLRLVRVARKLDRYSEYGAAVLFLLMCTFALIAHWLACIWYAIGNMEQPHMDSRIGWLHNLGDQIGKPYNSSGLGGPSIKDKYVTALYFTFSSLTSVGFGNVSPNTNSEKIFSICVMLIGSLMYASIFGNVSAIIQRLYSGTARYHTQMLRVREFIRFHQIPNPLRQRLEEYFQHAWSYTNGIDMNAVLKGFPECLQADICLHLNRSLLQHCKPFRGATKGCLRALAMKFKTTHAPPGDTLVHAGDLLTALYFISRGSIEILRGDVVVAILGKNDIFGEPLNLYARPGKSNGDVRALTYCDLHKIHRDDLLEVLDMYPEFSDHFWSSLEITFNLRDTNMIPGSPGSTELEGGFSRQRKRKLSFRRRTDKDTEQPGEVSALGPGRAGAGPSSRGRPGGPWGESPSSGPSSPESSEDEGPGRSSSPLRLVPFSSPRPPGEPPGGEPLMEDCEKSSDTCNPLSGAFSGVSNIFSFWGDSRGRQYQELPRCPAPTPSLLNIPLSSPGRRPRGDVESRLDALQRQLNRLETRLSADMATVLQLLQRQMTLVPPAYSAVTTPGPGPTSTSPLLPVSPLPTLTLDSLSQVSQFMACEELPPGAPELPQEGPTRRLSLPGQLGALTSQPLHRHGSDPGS

| SMILES | hERG current change (%, negative = inhibition) at 10uM [%] |
| --- | --- |
| Cc1ccc(O)c(N=CC2=C(O)c3ccccc3C2=O)c1 | 30.6 |
| CC1(C)CC(=O)C2=C(C1)Nc1[nH]c(=S)[nH]c(=O)c1C2c1ccccc1 (stereo not shown) | 19.4 |
| CCN(Cc1ccc2c(c1)OCCO2)C(=O)CN1C(=O)NC2(CCc3ccccc32)C1=O (stereo not shown) | -2.44 |
| CC(=O)NC(=S)Nc1ccc(S(=O)(=O)N2CCOCC2)cc1 | 19.6 |
| CCOc1cccc2cc(-c3cn4cc(C)ccc4n3)c(=O)oc12 | 17.4 |
| CC(C)c1ccc(C(N)=S)cc1 | 16.6 |
| O=C(CN1CCCN(Cc2ccc(F)cc2Cl)C1=O)NC1CCCCCC1 | -34.3 |
| O=C(Cc1ccccc1)Nn1c(-c2ccccc2)nc2ccccc2c1=O | -7.98 |
| COc1ccc(C(CNC(=O)Cc2ccccc2F)N2CCCCC2)cc1 (stereo not shown) | 4.86 |
| Cc1ccc(C)n1N1C(=O)/C(=C\c2ccc(Cl)cc2)SC1=S | 6.57 |
| CSc1ccccc1NC(=O)c1onc(C)c1Cl | 12.8 |
| O=C(NCc1ccco1)c1nn2cccnc2c1Cl | -1.19 |
| CCOC(=O)CSc1nnc(CNC(=O)c2ccc(S(=O)(=O)N3CCCCC3)cc2)n1C | 10.2 |
| O=C1c2ccccc2-c2cccc(NS(=O)(=O)c3ccc(C(F)(F)F)cc3)c21 | 10.2 |
| CC(C)CC1(C)NC(=O)NC1=O (stereo not shown) | -19 |
| CN(N=Nc1ccc([N+](=O)[O-])cc1)c1ccccc1 | 15 |
| COc1ccc(CNC(=O)CCCn2c(=S)[nH]c3cc4c(cc3c2=O)OCO4)cc1 | 12.6 |
| Cc1cccc([N+](=O)[O-])c1NC(=O)CN(Cc1ccccc1)Cc1ccccc1 | -10.7 |
| NC(=O)c1ccc(NC(=O)c2ccc3c(c2)OCO3)cc1 | -8.71 |
| CCN(CC)c1ccc(/C=C2/C(=O)N(c3ccc([N+](=O)[O-])cc3)N=C2N2CCOCC2)cc1 | -4.56 |
| CC(=O)c1cc2c(O)c(O)ccc2o1 | 12.5 |
| Cc1ccc(C(=O)Nc2ccncc2)o1 | 0.524 |

| SMILES | hERG current change (%, negative = inhibition) at 10uM [%] |
| --- | --- |
| Cc1ccc(C(=O)COC(=O)c2ccncc2)cc1[N+](=O)[O-] | 22.6 |
| O=C(CN1C(=O)NC2(CCCc3ccccc32)C1=O)NCc1ccco1 (stereo not shown) | 2.37 |
| O=C(NNC1=NCCCCC1)c1ccccc1 | 9.12 |
| CCCCn1nc2cc(C(=O)NCc3ccccc3OC)ccc2c1OCC | -22.9 |
| C=CCn1c(SCC(=O)NC(C)(C)C)nnc1-c1ccccc1O | -9.87 |
| CC(=O)Oc1cc(OC(C)=O)c2c(=O)c(-c3ccc4c(c3)OCCCO4)c(C)oc2c1 | 10.8 |
| Cc1ccc(-c2nc3ccccc3c(=O)n2CCCN2CCOCC2)cc1 | -10.9 |
| CCOC(=O)N1CCN(C(=O)CCNS(=O)(=O)c2cc(Br)cnc2N)CC1 | 13.7 |
| OCCCn1c(C2CCCN2c2nc(-c3ccc(Cl)cc3)cs2)nc2cc(Cl)c(Cl)cc21 (stereo not shown) | -21.8 |
| CCCCc1nnc(NC(=O)CSc2nc(C)cc(=O)[nH]2)s1 | -8.93 |
| CCOC(=O)c1c(C)[nH]c(C(=O)O)c1C | 15.1 |
| Cc1ccc(-n2nc3c(c2NC(=O)c2ccco2)CS(=O)C3)c(C)c1 (stereo not shown) | -18.1 |
| CC1=CC(C)(C)N=C(NC#N)N1 | 3.6 |
| NS(=O)(=O)c1ccc(CCNC(=O)c2cc(-c3ccco3)nc3ccccc23)cc1 | -58.3 |
| CN(Cc1c(F)cccc1Cl)C(=O)CNC(=O)c1cccs1 | -5.95 |
| CCCCOc1ccc(C2(C)NC(=O)NC2=O)cc1 (stereo not shown) | -3.1 |
| Cc1cc(C(C)(C)C)cc(C)c1CCNC(=O)c1ccc[n+]([O-])c1 | -31.1 |
| S=c1[nH]nc(Nc2ccccc2Cl)s1 | 11.5 |
| CC(C)c1nc(SCC(=O)Nc2c[nH]c(=O)[nH]c2=O)c2cnn(-c3ccccc3)c2n1 | 20.9 |
| COc1ccc(C(=O)Nc2cccc(-c3ccc4nncn4n3)c2)cc1OC | 8.84 |
| COc1ccccc1C(=O)COC(=O)C(CCSC)NC(=O)COc1ccccc1 (stereo not shown) | -8.95 |
| CCOC(=O)c1ccc(CSc2n[nH]c(C)n2)o1 | 3.96 |

| SMILES | hERG current change (%, negative = inhibition) at 10uM [%] |
| --- | --- |
| CCOCCCNC(=O)c1cc(Sc2ccc(F)cc2)nc2ccccc12 | -12.4 |
| O=C1N[C@@H](Cc2ccccc2)C(=O)N2[C@H]1C[C@]1(Br)c3ccccc3N(S(=O)(=O)c3ccccc3)[C@H]21 | -8.32 |
| COc1ccc(C(=O)C2CCCN(C(=O)CCc3scnc3C)C2)c(C)c1 (stereo not shown) | -21.5 |
| Cc1cccc(C)c1NC(=O)CNC(=O)CCCc1c[nH]c2ccccc12 | -34.5 |
| Cc1ccc(-c2ccc(CCC(=O)O)n2NC(=O)c2cccs2)cc1 | -6.83 |
| CN(C(=O)c1sc2nc(N3CCCC3)c3c(c2c1N)CC(C)(C)OC3)c1ccccc1 | -6.85 |
| CCCCC(C)C(OC(=O)CC(CC(=O)O)C(=O)O)C(CC(C)CC(O)CCCCC(O)CC(O)C(C)N)OC(=O)CC(CC(=O)O)C(=O)O (stereo not shown) | 9.03 |
| Cc1ccc(Cn2nnc3c(=O)[nH]c(C4CCN(S(=O)(=O)c5cc(C)ccc5C)CC4)nc32)cc1 | 13 |
| CCCc1cc(C(=O)OC)c(NC(=O)CCCC(=O)O)s1 | 26.5 |
| COCCn1c(SCC(=O)Nc2cc(C)on2)nc2c(c1=O)SCC2 | -5.05 |
| COc1ccc(OC)c(S(=O)(=O)N2CCCC(C(=O)NCc3cccnc3)C2)c1 (stereo not shown) | -5.43 |
| CN(C)C(=O)c1nc(C#N)c(N(C)C)o1 | 14.4 |
| Cc1ccccc1S(=O)(=O)Cc1ccc(C(=O)NCCN(CC(C)C)CC(C)C)o1 | -43.6 |
| COc1cc(NC(=O)c2ccc(C)cc2C)ccc1NC(=O)c1cccs1 | 8.21 |
| CCOc1ccccc1OCC(=O)Nc1ccc(Cl)cc1Cl | 9.65 |
| O=C(CCN1C(=O)c2ccccc2C1=O)N1CCC(c2ccccc2)C1 (stereo not shown) | -43 |
| Cc1cc(C)cc(NC(=S)N2CCC(NC(=O)C3CC3)CC2)c1 | 0.346 |
| COc1cc(=O)[nH]c(SC(C)C(=O)Nc2ccc3ccccc3c2)n1 (stereo not shown) | 18.7 |
| Cc1ccc(C(=O)Nc2ccc3c(c2)CCC3)cc1 | 14.7 |
| CCc1cc(=O)oc2cc(C)cc(OCC(=O)NCc3cccnc3)c12 | -31.5 |
| COc1cccc(/C=C(/C(=O)OCC(=O)NC2CCCC(C)C2C)c2ccccc2)c1 (stereo not shown) | 25.9 |
| CCc1nc(NCC2CCCO2)c2oc3ccccc3c2n1.Cl (stereo not shown) | -19 |

| SMILES | hERG current change (%, negative = inhibition) at 10uM [%] |
| --- | --- |
| COc1cccc(NC(=O)CN(C)C(=O)COc2ccc3ccccc3c2)c1 | 6.94 |
| COc1ccc(S(=O)(=O)N2CCCCCC2)cc1C(=O)NC1(C)CCS(=O)(=O)C1 (stereo not shown) | -42.4 |
| Cc1ccc(S(=O)(=O)N2CCC(C(=O)N3Cc4ccccc4C3)CC2)cc1 | -21.6 |
| CC(NC(=O)Cc1cccc2ccccc12)C(=O)N1CCC(=O)CC1 (stereo not shown) | 22 |
| COc1ccc(NC(=O)Cc2cccc(F)c2)cc1S(=O)(=O)Nc1ccccc1Cl | -3.55 |
| CCOC(=O)c1cc2c(ccn2-c2ccc(F)cc2)n1CC(=O)NC(C)(C)C | 15.2 |
| CSC1=NC2(CCCCC2)C2=C(CCCC2)N1 | -19.4 |
| CCOC(=O)COc1ccccc1/C=N/O | 0.661 |
| Cc1onc(-c2ccccc2)c1C(=O)N/N=C/c1ccc(O)c([N+](=O)[O-])c1 | 9.34 |
| COc1cccc(/C=C/C(=O)Nc2ccc3nc4n(c(=O)c3c2)CCCC4)c1OC | 12.8 |
| CC(C)(CNC(=O)c1cccc(S(=O)(=O)NCc2ccccc2)c1)N1CCOCC1 | -21.6 |
| COc1ccc(-c2nnc(SCc3csc(N)n3)n2C)cc1 | -11.9 |
| C=CCc1c(C)c(C#N)c2nc3ccccc3n2c1NCCN(C)C | -15.8 |
| CC(=O)O[C@H]1CC[C@@]2(C)[C@H](C1)C(=O)C[C@H]1[C@@H]3CC[C@@H]4[C@@H](CN5C[C@@H](C)CC[C@H]5[C@@]4(C)O)[C@@H]3C[C@@H]12 | -3.95 |
| Clc1cccc(CSc2ccc(-c3cccnc3)nn2)c1 | -67.3 |
| O=C(C1COc2ccccc2O1)N1CCc2ccccc2C1 (stereo not shown) | -3.37 |
| Cc1nc2ccccc2n2c(-c3ccccc3)c3c(=O)n(C)c(=O)n(C)c3c12 | -7.8 |
| COc1ccc(S(=O)(=O)N2CCC(O)(c3ccc4c(c3)OCO4)CC2)cc1 | -11.2 |
| CCOc1ccc2c(c1)C(C)=CC(C)(C)N2C(=O)Nc1ccccc1 | 5.9 |
| COc1ccc(OCC(=O)N2CCN(Cc3ccc4c(c3)OCO4)CC2)cc1 | -12.2 |
| CCOc1ccc(Br)cc1S(=O)(=O)Nc1nc(CN2CCOCC2)nc2sc(C)c(C)c12 | -8.26 |
| COc1ccc([N+](=O)[O-])cc1NC(=O)C(C)OC(=O)CC1CCCC1 (stereo not shown) | -35.7 |
